# The full ranking holds about 81,000 sequences; the median of “one-hybrid fitness for binding NBS DNA” is about -0.1, and the highest 2% start at about 0.36. Some of the results follow.
# B1: Caulobacter ParB omega fusion; a variant is named by its letters at X, in order, B8GW30 (parent)
# chain: MESVVVGEPGMSEGRRGLGRGLSALLGEVDAAPAQAPGEQLGGSREAPIEILQRNPDQPRRTFREEDLEDLSNSIREKGVLQPILVRPSPDTAGEYQIVAGERAWRAAQRAGLKTVPIMVRELDDLAVLEIGIIENVQRADLNVLEEALSYKVLMEKFERTQENIAQTIGKSXSHVANXMRLLXLPDEVQSYLVSGELTAXHARAIAAAADPVALAKQIIEGGLSVRETEALARKAPNLSAGKSKGGRPPRVKDTDTQALESDLSSVLGLDVSIDHRGSTGTLTITYATLEQLDDLCNRLTRGI
# Variants of: B1
# Test: one-hybrid fitness for binding NBS DNA (the Noc-binding site; scaled: cognate 1, non-cognate 0); higher = stronger binding
# Conditions: with NBS DNA site
# Outline: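 In E. coli USO, a HIS3 reporter with its site placed 19 bp from the promoter was used to select Caulobacter ParB variants randomised at four specificity codons. Growth lasted 48 hours at 37°C on histidine-free M9 containing 0.1 mM IPTG and 5 mM 3-AT. Fitness was taken as the log change in variant-to-wild-type read ratio from Illumina sequencing of pre- and post-selection plasmids, rescaled between the non-cognate and cognate sites.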
row,Variant,one-hybrid fitness for binding NBS DNA
1,SEMP,≤ 0.2
2,AITW,≤ 0.2
3,KHHT,≤ 0.2
4,RSEI,≤ 0.2
5,PLIN,≤ 0.2
6,RHAN,≤ 0.2
7,QIHM,≤ 0.2
8,VPED,≤ 0.2
9,QPIL,≤ 0.2
10,KPAG,≤ 0.2
11,WHSV,≤ 0.2
12,ERQS,≤ 0.2
13,KQQG,≤ 0.2
14,HAPK,≤ 0.2
15,RQYC,≤ 0.2
16,QRGV,0.452
17,GSPC,≤ 0.2
18,VGCR,≤ 0.2
19,NCTH,≤ 0.2
20,TLYK,≤ 0.2
21,AAQD,≤ 0.2
22,IRIS,≤ 0.2
23,HPAM,≤ 0.2
24,IMGR,≤ 0.2
25,YSLV,≤ 0.2

row,Variant,one-hybrid fitness for binding NBS DNA
1,ANKN,≤ 0.2
2,KIQL,≤ 0.2
3,EEIR,≤ 0.2
4,GNLK,≤ 0.2
5,SRAW,≤ 0.2
6,KTQV,≤ 0.2
7,CMIN,≤ 0.2
8,RGPQ,≤ 0.2
9,TKNM,≤ 0.2
10,RGVD,≤ 0.2
11,EADT,≤ 0.2
12,RCPP,≤ 0.2
13,SQVA,≤ 0.2
14,HACR,≤ 0.2
15,SNDY,≤ 0.2
16,PRYA,≤ 0.2
17,RFTP,≤ 0.2
18,GTSA,≤ 0.2
19,IART,≤ 0.2
20,DTTV,≤ 0.2
21,LKMA,≤ 0.2
22,MDPC,≤ 0.2
23,QVRP,≤ 0.2
24,LMYC,≤ 0.2
25,GPLC,≤ 0.2

row,Variant,one-hybrid fitness for binding NBS DNA
1,FHSV,≤ 0.2
2,ILNS,≤ 0.2
3,NVET,≤ 0.2
4,PAIS,≤ 0.2
5,RNQC,≤ 0.2
6,QFNS,≤ 0.2
7,STEN,≤ 0.2
8,GEPK,≤ 0.2
9,VALI,≤ 0.2
10,PCRI,≤ 0.2
11,WPKG,≤ 0.2
12,VKSF,≤ 0.2
13,DPSG,≤ 0.2
14,TPLW,≤ 0.2
15,RMGW,≤ 0.2
16,LWKM,≤ 0.2
17,AWAC,≤ 0.2
18,PSIF,≤ 0.2
19,TETC,≤ 0.2
20,TLRN,≤ 0.2
21,NPSC,≤ 0.2
22,SARI,≤ 0.2
23,LTDP,≤ 0.2
24,PAHL,≤ 0.2
25,CDVR,≤ 0.2

row,Variant,one-hybrid fitness for binding NBS DNA
1,MKWG,≤ 0.2
2,GPGR,≤ 0.2
3,NLQA,≤ 0.2
4,FRGR,≤ 0.2
5,NRMD,≤ 0.2
6,CMKT,≤ 0.2
7,TNRV,≤ 0.2
8,YGSG,≤ 0.2
9,FLQG,≤ 0.2
10,TIPV,≤ 0.2
11,GACT,≤ 0.2
12,MSYN,≤ 0.2
13,RCKH,0.403
14,QCRI,0.407
15,SRCR,≤ 0.2
16,KDIR,≤ 0.2
17,VTPL,≤ 0.2
18,RNSH,≤ 0.2
19,RYGG,≤ 0.2
20,QMVL,≤ 0.2
21,FLLG,≤ 0.2
22,WVKG,≤ 0.2
